Laboratory results published in the supplement of paper PMC10600219.
Counter-ions that a name gives are not always drawn. In all, about 2,800 compounds were measured (“cell viability relative to vehicle”: median about 0.98, lowest 2% from about 0.45 on). This is one part of the list.

Tested on: NCI-H2228 alectinib-DTP
Experiment: cell viability relative to vehicle (fraction of vehicle); NCI-H2228 is an ALK-positive lung cancer line and DTP means drug-tolerant persister; higher = less growth inhibition
Conditions: 100 nM; treatment time 6 days
Summary of the method: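 Drug-tolerant persister NCI-H2228 cells, produced by 13 days in 1000 nM of a targeted drug, and their parental counterparts were seeded into 384-well plates and, the following day, given the 3114-agent TargetMol anti-cancer compound library at 100 nM or DMSO vehicle. After 6 days, the CellTiter-Glo 3D Cell Viability Assay was used to read ATP. Each entry reports viability compared with vehicle-treated cells.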

Structure (SMILES) | cell viability
Cn1c(=O)c2c(ncn2CC(=O)O)n(C)c1=O [Theophylline-7-acetic acid] | 0.815
COc1cc(OCc2cccc(-c3ccccc3)c2C)cc(OC)c1CN1CCCC[C@H]1C(=O)O [PD-1/PD-L1 inhibitor 1] | 0.952
CC1(C)CCC(CN2CCN(c3ccc(C(=O)NS(=O)(=O)c4ccc(NCC5CCOCC5)c([N+](=O)[O-])c4)c(Oc4cnc5[nH]ccc5c4)c3)CC2)=C(c2ccc(Cl)cc2)C1 | 1.1
NCC1CCC(C(=O)O)CC1 (stereo unspecified) [Amstat] | 1.02
CS(=O)(=O)c1cccc(CNc2nc(Nc3ccc4c(c3)CCC(=O)N4)ncc2C(F)(F)F)c1 | 0.78
Cc1ccc(NC(=O)c2ccc(CN3CC[C@H](N(C)C)C3)c(C(F)(F)F)c2)cc1Nc1nccc(-c2cncnc2)n1 [Bafetinib] | 1.1
CC(C)(Oc1ccc(Cl)cc1)C(=O)O [Clofibric acid] | 1.14
COc1cc(Nc2ncc(F)c(Nc3ccc4c(n3)NC(=O)C(C)(C)O4)n2)cc(OC)c1OC [R406 free base] | 0.649
COc1cc(Nc2ncc(F)c(Nc3ccc4c(n3)NC(=O)C(C)(C)O4)n2)cc(OC)c1OC | 0.814
CC(=O)NO [Acetohydroxamic acid] | 0.749
N[C@@H](Cn1ccc(=O)c(O)c1)C(=O)O [L-Mimosine] | 0.966
CC(=O)N[C@@H](CCC(N)=O)C(=O)O [Aceglutamide] | 0.892
O=C(O)CCC(=O)Nc1ccc(Br)cn1 [Bikinin] | 0.998
COc1ccc(C(=O)Nc2sc3c(c2C(N)=O)CCCC3)cc1OC | 0.863
COc1cc2ncnc(Nc3ccc(Oc4ccccc4)cc3C)c2cc1OC | 0.904
CCC[C@H](Nc1nc(-c2ccc(NC(=O)NCC)c(OC)c2)ncc1C)c1cccnc1 [Lexibulin] | 0.611
Nc1ccc(Cl)cc1C(=O)O [2-Amino-5-chlorobenzoic acid] | 1.03
COc1cc2ncc(-c3ccccc3)nc2cc1OC [Tyrphostin AG 1296] | 0.903
O=c1cc(N2CCNCC2)oc2c(-c3ccccc3)cccc12 | 0.886
CCOc1ccc2c(-c3cccc(F)c3)nn(CC(=O)N(C)c3ccc4nc(C)oc4c3)c(=O)c2c1 | 0.927
COc1cc2c(c(OC)c1OC)-c1c(cc(OC)c(OC)c1OC)CC(C)C(C)C2 (stereo unspecified) [Schizandrin A] | 0.877
CC(C)=CC(=O)O[C@H]1Cc2cc3ccc(=O)oc3cc2OC1(C)C [Decursin] | 1.05
Cc1ccc(-c2ncc(Cl)cc2-c2ccc(S(C)(=O)=O)cc2)cn1 [Etoricoxib] | 0.866
O=C(O)c1cc(O)c2c(c1)[C@@H]([C@H]1c3cc(C(=O)O)cc(O)c3C(=O)c3c(O[C@@H]4O[C@H](CO)[C@@H](O)[C@H](O)[C@H]4O)cccc31)c1cccc(O[C@@H]3O[C@H](CO)[C@@H](O)[C@H](O)[C@H]3O)c1C2=O [Sennoside B] | 0.981
Cn1ncc(Cl)c1-c1cc(C(=O)N[C@H](CN)Cc2cccc(F)c2)sc1Cl [Afuresertib] | 0.619
Clc1ccc(COC(Cn2ccnc2)c2ccc(Cl)cc2Cl)c(Cl)c1 (stereo unspecified) [Miconazole] | 1.04

Structure (SMILES) | cell viability
COc1c(O[C@@H]2O[C@H](CO)[C@@H](O)[C@H](O)[C@H]2O)cc2occ(-c3ccc(O)cc3)c(=O)c2c1O [Tectoridin] | 1.03
Cc1cc(=O)n(-c2ccccc2)n1C [Antipyrine] | 1
C[C@H](NC(=O)CNC(=O)c1cccc(Cl)c1)c1ccccc1 | 0.957
C=CC(=O)N1CCC(Oc2cc3c(Nc4ccc(Cl)c(Cl)c4F)ncnc3cc2OC)CC1 [Poziotinib] | 0.648
Cc1c(Cc2ccc3ccccc3n2)c2cc(F)ccc2n1CC(=O)O [Timapiprant] | 0.927
CO[C@@H](C(=O)N1Cc2[nH]nc(NC(=O)c3ccc(N4CCN(C)CC4)cc3)c2C1)c1ccccc1 [Danusertib] | 0.816
CCCCCCCCCCCCCCCC(=O)NCCO [Palmidrol] | 1
CC(C)=CCC[C@](C)(O[C@@H]1O[C@H](CO)[C@@H](O)[C@H](O)[C@H]1O)[C@H]1CC[C@]2(C)[C@@H]1[C@H](O)C[C@@H]1[C@@]3(C)CC[C@H](O[C@@H]4O[C@H](CO)[C@@H](O)[C@H](O)[C@H]4O)C(C)(C)[C@@H]3CC[C@]12C [Ginsenoside F2] | 0.933
O=C(Nc1cccc(-c2ccccc2)c1)OC1CCCCC1 | 1.01
CCOC(=O)C(C)(C)Oc1ccc(Cl)cc1 [Clofibrate] | 1.08
O=c1cc(N2CCOCC2)oc2c1ccc1ccccc12 | 0.917
CN1CCN(c2ccc(-c3ccncc3-c3cc(F)c(O)c(F)c3)cc2)CC1 | 1.11
C[C@H](NC(=O)[C@@H](O)c1cc(F)cc(F)c1)C(=O)N[C@@H]1C(=O)N(C)c2ccccc2-c2ccccc21 | 0.773
C[C@]12CC[C@@H]3c4ccc(O)cc4CC[C@H]3[C@@H]1CC[C@@H]2OC(=O)CCC1CCCC1 [Depofemin] | 1.1
CCCC(=O)O [Butyric  acid] | 1.04
Cc1cc(Nc2ccc(NC(=O)c3ccc(Nc4ccnc5ccccc45)cc3)cc2)nc(N)n1 | 1.05
O=C(Cc1ccc(-c2ccc(OCCN3CCOCC3)cc2)cn1)NCc1ccccc1 | 0.733
Nc1ncn([C@H]2C[C@H](O)[C@@H](CO)O2)c(=O)n1 [Decitabine] | 0.827
O=c1cc(-c2ccc(O)c(O)c2)oc2cc(O)cc(O)c12 [Luteolin] | 1.13
CCOc1cc(C(=O)N2CCC(N3CCN(C)CC3)CC2)ccc1Nc1ncc2c(n1)N(C1CCCC1)c1ccccc1C(=O)N2C | 1.02
O=C(NOCCO)c1ccc2cncn2c1Nc1ccc(I)cc1F | 0.951
CC(=O)Nc1ccc(NC(=S)NC(=O)c2ccc(C(C)(C)C)cc2)cc1 [Tenovin-1] | 0.946
O=C(Nc1ccc(Cl)cc1)C1CCCN(C(=O)c2cccc(-c3ccco3)c2)C1 (stereo unspecified) | 0.946
CCN[C@H]1C[C@H](C)S(=O)(=O)c2sc(S(N)(=O)=O)cc21 [Dorzolamide hydrochloride] | 1.21
O=C1Cc2cc(CCN3CCN(c4nsc5ccccc45)CC3)c(Cl)cc2N1 [Ziprasidone hydrochloride monohydrate] | 1.13
